{"source": "PubChem BioAssay AID1347428", "about": "(National Center for Advancing Translational Sciences (NCATS), 2020)", "note": "Among all 91,000 compounds or so, about 290 (0.32%) were called active. The shares of active, inactive and inconclusive entries below differ from those in the screen. The call rests on the fitted dose curve; in most records, active means well fitted inhibition curve with a large enough effect; inconclusive means small, poorly fitted or top-dose-only effect; inactive means no such curve, though single readings can be large or run the other way. A potency beside an inconclusive call is a rough fit, not a confirmed value. Potency means the concentration at half of the fitted maximal effect; tags describe the fitted curve by direction and shape.", "data": [{"molecular_target": "Single-stranded DNA cytosine deaminase (Homo sapiens) (UniProt Q9GZX7)", "sequence (Q9GZX7 whole entry, looked up)": "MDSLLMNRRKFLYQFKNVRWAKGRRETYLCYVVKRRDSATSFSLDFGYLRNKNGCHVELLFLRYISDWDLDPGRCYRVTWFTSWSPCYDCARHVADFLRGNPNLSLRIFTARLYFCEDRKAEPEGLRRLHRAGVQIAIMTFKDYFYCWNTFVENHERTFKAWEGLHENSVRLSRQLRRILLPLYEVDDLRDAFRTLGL", "assay": "Primary qHTS assay for inhibitors of Activation Induced Cytidine Deaminase (AID): AID signal; further: nearly all actives have a fitted effect of over 25% in size", "details": "AID deamination FRET fluorescence, UDG-coupled, 4 h; series mostly up to 115 µM", "values": [{"compound": "Fc1ccc(-c2csc(-c3ccsc3)n2)cc1F", "Potency": "inactive"}, {"compound": "Cn1cnnc1SCC(=O)Nc1ccc(C#N)cc1", "Potency": "inconclusive: 100 µM [inhibitor, partial curve, poor fit]"}, {"compound": "COc1cc(/C=C(/C#N)c2ccc(Cl)cc2)cc(OC)c1OC", "Potency": "inconclusive: 44.7 µM [inhibitor, partial curve, poor fit]"}, {"compound": "COc1ccc(CCNc2ncnc3c2c(-c2ccccc2)cn3-c2ccc(Cl)cc2)cc1OC", "Potency": "inconclusive: 39.8 µM [inhibitor, full curve, poor fit]"}, {"compound": "Cc1cccc(-n2cnc3cc(C(=O)NCc4ccccc4Cl)ccc32)c1", "Potency": "inconclusive: 44.7 µM [inhibitor, partial curve]"}, {"compound": "COc1ccccc1-c1nnc(C2CCN(C(=O)c3ccccc3C)CC2)o1", "Potency": "inconclusive: 100 µM [inhibitor, single point]"}, {"compound": "Cc1ccc2cc(-c3ccccc3)[nH]c2c1", "Potency": "inactive"}, {"compound": "CCCCCCCCCCCCCCCCNC(=O)CC#N", "Potency": "inactive"}, {"compound": "COc1ccccc1N1CCN(C(=O)Cn2ncc3c2-c2cc(C)ccc2OC3)CC1", "Potency": "inconclusive: 31.6 µM [inhibitor, partial curve, poor fit]"}, {"compound": "Cc1ccc(-n2ncc(C(=O)Nc3ccc4c(c3)OCCO4)c2C2CCN(C(=O)OC(C)(C)C)CC2)cc1C", "Potency": "inconclusive: 10 µM [inhibitor, partial curve, poor fit]"}, {"compound": "Cc1cc(N(Cc2ccccc2F)C2CC2)n2nc(C(F)(F)F)nc2n1", "Potency": "inactive"}, {"compound": "COc1cccc(NC(=O)C2CCCN(c3ncnc4onc(-c5ccc(F)cc5)c34)C2)c1", "note": "(stereo unspecified)", "Potency": "inconclusive: 28.2 µM [inhibitor, partial curve]"}, {"compound": "COc1ccc(-c2nn(C)c3sc(C(=O)NCCN(C)C)cc23)cc1OC", "Potency": "inconclusive: 56.2 µM [inhibitor, partial curve, poor fit]"}, {"compound": "O=C(NCCc1ccccc1)c1c[nH]c2ccc(S(=O)(=O)Nc3ccc(F)cc3F)cc2c1=O", "Potency": "inactive"}, {"compound": "CCCN(CCC)CC1=C(C(=O)OCC)C(c2ccc(C)cc2)NC(=O)N1", "note": "(stereo unspecified)", "Potency": "inconclusive: 79.4 µM [inhibitor, partial curve, poor fit]"}, {"compound": "CCOC(=O)N1CCc2c(sc3c2c(=O)n(-c2ccc(CC)cc2)c(=O)n3Cc2cccc(Cl)c2)C1", "Potency": "inactive"}, {"compound": "O=C(c1ccc2c(c1)N(Cc1ccccc1)C(=O)c1ccccc1S2(=O)=O)N1CCCCCC1", "Potency": "inconclusive: 79.4 µM [inhibitor, partial curve, poor fit]"}, {"compound": "Cc1cc2cc(N)ccc2[nH]1", "Potency": "inactive"}, {"compound": "Cc1cc(C)cc(NC(=O)C2CCCN(C(=O)c3cnn(-c4ccccc4)c3-n3cccc3)C2)c1", "note": "(stereo unspecified)", "Potency": "inconclusive: 56.2 µM [inhibitor, partial curve, poor fit]"}, {"compound": "Cc1cccn2c(=O)cc(COc3cccc(NC(=O)COc4ccc(F)cc4)c3)nc12", "Potency": "inconclusive: 50.1 µM [inhibitor, partial curve, poor fit]"}, {"compound": "CC(NC(=O)CN(c1ccc(Cl)cc1Cl)S(=O)(=O)c1ccccc1)c1ccccc1", "note": "(stereo unspecified)", "Potency": "inconclusive: 28.2 µM [inhibitor, full curve, poor fit]"}, {"compound": "CSc1ccc(/C=C/C(=O)Nc2cc(Cl)ccc2C)cc1", "Potency": "inactive"}, {"compound": "Cc1ccc(OC(=O)CSc2nnc(-c3cccs3)o2)cc1", "Potency": "inconclusive: 63.1 µM [inhibitor, partial curve, poor fit]"}, {"compound": "COc1cccc(OC)c1C(=O)Nc1cccc2ncccc12", "Potency": "inactive"}, {"compound": "Cc1ccc(Nc2nc(N3CCCC3)nc3nccnc23)c(C)c1", "Potency": "inconclusive: 31.6 µM [inhibitor, partial curve]"}, {"compound": "CCOc1ccc(-c2nnc(N3CCCCC3)c3ccccc23)cc1", "Potency": "inconclusive: 56.2 µM [inhibitor, partial curve]"}, {"compound": "Brc1cccc(/C=N/Nc2ccc3ccccc3c2)c1", "Potency": "inactive"}, {"compound": "O=c1c(S(=O)(=O)c2ccccc2)cn(Cc2cccc(F)c2)c2cc(N3CCOCC3)c(F)cc12", "Potency": "inconclusive: 20 µM [inhibitor, partial curve, poor fit]"}, {"compound": "CCCc1nc2ccccc2n2c(-c3ccccc3)c3c(=O)n(C)c(=O)n(C)c3c12", "Potency": "inconclusive: 28.2 µM [inhibitor, full curve, poor fit]"}, {"compound": "Cc1ccccc1CN1C(=O)c2ccccc2Sc2ccc(C(=O)N3CCCC3)cc21", "Potency": "inconclusive: 79.4 µM [inhibitor, partial curve, poor fit]"}, {"compound": "Cc1cc(C)cc(NC(=O)Cn2c(=O)c3c(ncn3Cc3ccccc3)n(Cc3ccccc3)c2=O)c1", "Potency": "inactive"}, {"compound": "CCc1ccc(NC(=O)c2cnc(SC)nc2-c2ccccc2)cc1", "Potency": "inactive"}, {"compound": "Cc1cccc2c1-c1sc(C(=O)N(C)c3cccc(C(F)(F)F)c3)cc1CO2", "Potency": "inconclusive: 20 µM [inhibitor, full curve, poor fit]"}, {"compound": "CCOC(=O)C1CCN(C(=O)c2ccc3c(=O)n4nc(Nc5cc(C)ccc5C)sc4nc3c2)CC1", "Potency": "inconclusive: 20 µM [inhibitor, partial curve, poor fit]"}, {"compound": "CCOc1cccc(C2c3c(-c4cc(C)ccc4O)n[nH]c3C(=O)N2Cc2ccco2)c1", "note": "(stereo unspecified)", "Potency": "inconclusive: 100 µM [inhibitor, partial curve, poor fit]"}, {"compound": "Cc1ccc(-c2cc(C(F)(F)F)c(C#N)c(SCC(=O)Nc3ccccc3)n2)cc1", "Potency": "inconclusive: 89.1 µM [inhibitor, single point]"}, {"compound": "COc1ccc(-c2nc(S(=O)(=O)c3ccc4c(c3)OCCO4)c(N3CCN(C)CC3)o2)cc1", "Potency": "inconclusive: 79.4 µM [inhibitor, partial curve, poor fit]"}, {"compound": "Cc1ccc(CN(Cc2ccco2)C(=O)COc2ccc(C(C)C)cc2)cc1", "Potency": "inconclusive: 22.4 µM [inhibitor, full curve]"}, {"compound": "Cn1c(=O)[nH]c(=O)c2c1nc(N1CCC(Cc3ccccc3)CC1)n2CCCc1ccccc1", "Potency": "inconclusive: 56.2 µM [inhibitor, partial curve, poor fit]"}, {"compound": "COc1ccc(C(=O)CSc2c(C(C)C)cnc3c2c(=O)n(C)c(=O)n3C)cc1", "Potency": "inconclusive: 79.4 µM [inhibitor, single point]"}, {"compound": "Cn1c(=O)[nH]c(=O)c2c1nc(CN1CCN(Cc3ccccc3)CC1)n2CCCO", "Potency": "inactive"}, {"compound": "Cc1ccc2c(c1)C(c1ccc(F)cc1)N(C(=O)c1ccc(OC(C)C)cc1)CC(=O)N2", "note": "(stereo unspecified)", "Potency": "inconclusive: 50.1 µM [inhibitor, partial curve, poor fit]"}, {"compound": "COc1ccccc1NC(=O)c1sc2nc3c(cc2c1N)CCCCCC3", "Potency": "inactive"}, {"compound": "CSc1cccc(NC(=O)C2CCN(C(=O)c3cnn(-c4ccccc4)c3-n3cccc3)CC2)c1", "Potency": "inconclusive: 35.5 µM [inhibitor, partial curve, poor fit]"}, {"compound": "CCc1ccc(-n2c(=O)c3c4c(sc3n(CC(=O)c3ccc(Cl)cc3)c2=O)CCC4)cc1", "Potency": "inconclusive: 35.5 µM [inhibitor, single point]"}, {"compound": "CCOc1ccccc1NC(=O)Cn1ccn(Cc2ccc(C)cc2)c(=O)c1=O", "Potency": "inconclusive: 56.2 µM [inhibitor, partial curve, poor fit]"}, {"compound": "CC(c1nc(C(C)(C)C)no1)N1CCN(C(=O)c2ccco2)CC1", "note": "(stereo unspecified)", "Potency": "inactive"}, {"compound": "Fc1ccccc1Cn1c(-c2ccccc2)nc2ccccc21", "Potency": "active: 44.7 µM"}, {"compound": "Clc1ccccc1CNc1ncnc2c1c(-c1ccccc1)cn2-c1ccccc1", "Potency": "inconclusive: 25.1 µM [inhibitor, partial curve, poor fit]"}, {"compound": "CC(C(=O)Nc1cccc(C#N)c1)n1nc(-c2ccccc2)c2c(c1=O)CCCC2", "note": "(stereo unspecified)", "Potency": "inconclusive: 44.7 µM [inhibitor, partial curve, poor fit]"}, {"compound": "O=C(CN1CCN(S(=O)(=O)c2cc(Cl)ccc2Cl)CC1)Nc1cccc(F)c1", "Potency": "inconclusive: 11.2 µM [inhibitor, partial curve, poor fit]"}, {"compound": "Cn1cc(S(=O)(=O)c2ccc(Cl)cc2)c(=O)c2cc(F)c(N3CCCCCC3)cc21", "Potency": "inconclusive: 12.6 µM [inhibitor, full curve, poor fit]"}, {"compound": "CCOc1ccc(NC(=O)c2ccc3c(SCC(=O)O)c4c(nc3c2)CCCC4)cc1", "Potency": "inconclusive: 39.8 µM [inhibitor, single point]"}, {"compound": "CC(C)N(CCNC(=O)C(c1ccccc1)c1ccccc1)C(C)C", "Potency": "inactive"}, {"compound": "Cc1ccc(S(=O)(=O)c2nc(-c3ccccc3F)oc2N2CCCCC2)cc1", "Potency": "inconclusive: 50.1 µM [inhibitor, partial curve, poor fit]"}, {"compound": "Cc1ccc(CCNC(=O)c2ccc3c(c2)N(Cc2cccc(C)c2)C(=O)c2ccccc2S3(=O)=O)cc1", "Potency": "inconclusive: 3.16 µM [inhibitor, full curve, poor fit]"}, {"compound": "CC(C)c1ccc(NC(=O)c2cc3c(s2)-c2ccccc2SC3)cc1", "Potency": "inconclusive: 25.1 µM [inhibitor, partial curve, poor fit]"}, {"compound": "COc1ccc(-c2cnc(C)o2)cc1S(=O)(=O)Nc1ccc(F)cc1", "Potency": "inconclusive: 15.8 µM [inhibitor, full curve]"}, {"compound": "Cc1ccc(O)c(C(CC(=O)NCC2(c3ccccc3)CCCC2)c2ccccc2)c1", "note": "(stereo unspecified)", "Potency": "inconclusive: 11.2 µM [inhibitor, partial curve, poor fit]"}, {"compound": "CCOC(=O)c1c(-c2ccccc2)oc2ccc(N(C(C)=O)S(=O)(=O)c3cc(C)ccc3C)cc12", "Potency": "inconclusive: 89.1 µM [inhibitor, partial curve, poor fit]"}, {"compound": "COc1ccc(OC)c(NC(=O)Cc2coc3ccc(C(C)C)cc23)c1", "Potency": "inconclusive: 39.8 µM [inhibitor, partial curve, poor fit]"}]}]}
